According to publication PMC10547799:
Positions count from the first letter of the chain named. These are yes or no findings as the source states them, for the method shown. Binding seen in cells or lysates may run through a third protein. Some binding calls cover weakened binding; strength is not graded here. For some of these results: Tags and fused reporters may be left off the sequences shown. One block for each substance: values may come before it.

By UniProt entry, the sequences of proteins in these tests, tags left out.
UniProt Q93009: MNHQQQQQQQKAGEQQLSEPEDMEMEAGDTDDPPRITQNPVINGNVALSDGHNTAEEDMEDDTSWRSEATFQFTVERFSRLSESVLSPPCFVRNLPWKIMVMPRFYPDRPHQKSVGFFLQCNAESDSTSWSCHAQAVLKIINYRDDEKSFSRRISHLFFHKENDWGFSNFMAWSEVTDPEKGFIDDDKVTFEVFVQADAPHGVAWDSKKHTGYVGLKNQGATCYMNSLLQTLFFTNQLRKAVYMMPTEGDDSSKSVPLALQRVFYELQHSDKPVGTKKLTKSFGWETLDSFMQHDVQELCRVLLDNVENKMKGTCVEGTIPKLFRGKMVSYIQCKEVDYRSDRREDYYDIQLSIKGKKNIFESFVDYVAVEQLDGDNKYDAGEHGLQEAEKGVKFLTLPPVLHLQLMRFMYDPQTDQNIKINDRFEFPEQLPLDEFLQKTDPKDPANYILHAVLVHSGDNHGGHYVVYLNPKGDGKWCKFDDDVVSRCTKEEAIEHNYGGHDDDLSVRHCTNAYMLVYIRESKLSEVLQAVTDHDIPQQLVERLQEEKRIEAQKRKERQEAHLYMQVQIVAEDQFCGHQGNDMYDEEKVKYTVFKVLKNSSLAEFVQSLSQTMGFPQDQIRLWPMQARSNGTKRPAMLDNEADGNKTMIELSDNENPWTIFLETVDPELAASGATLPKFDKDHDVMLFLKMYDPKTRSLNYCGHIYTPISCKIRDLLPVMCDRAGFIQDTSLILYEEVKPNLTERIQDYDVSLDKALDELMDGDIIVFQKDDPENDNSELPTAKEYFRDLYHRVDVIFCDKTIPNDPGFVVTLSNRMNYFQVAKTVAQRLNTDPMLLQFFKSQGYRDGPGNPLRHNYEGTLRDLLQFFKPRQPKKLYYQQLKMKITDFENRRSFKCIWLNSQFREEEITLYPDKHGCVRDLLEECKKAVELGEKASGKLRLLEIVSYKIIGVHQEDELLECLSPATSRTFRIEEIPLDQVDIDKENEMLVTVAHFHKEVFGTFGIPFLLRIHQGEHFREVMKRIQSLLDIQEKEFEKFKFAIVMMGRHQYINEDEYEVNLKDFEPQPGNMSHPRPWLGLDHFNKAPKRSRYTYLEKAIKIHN

Columns and labels:
[1] = molecular target: T1, UHRF1-His (UniProt Q96T88); test: co-IP; HEK293T co-transfected with UHRF1-His and Flag-tagged PLK1 (full length or truncated); IP with anti-Flag or anti-His; RIPA extracts, antibody 4 °C 12 h, protein A/G magnetic beads; western blot
T1 sequence: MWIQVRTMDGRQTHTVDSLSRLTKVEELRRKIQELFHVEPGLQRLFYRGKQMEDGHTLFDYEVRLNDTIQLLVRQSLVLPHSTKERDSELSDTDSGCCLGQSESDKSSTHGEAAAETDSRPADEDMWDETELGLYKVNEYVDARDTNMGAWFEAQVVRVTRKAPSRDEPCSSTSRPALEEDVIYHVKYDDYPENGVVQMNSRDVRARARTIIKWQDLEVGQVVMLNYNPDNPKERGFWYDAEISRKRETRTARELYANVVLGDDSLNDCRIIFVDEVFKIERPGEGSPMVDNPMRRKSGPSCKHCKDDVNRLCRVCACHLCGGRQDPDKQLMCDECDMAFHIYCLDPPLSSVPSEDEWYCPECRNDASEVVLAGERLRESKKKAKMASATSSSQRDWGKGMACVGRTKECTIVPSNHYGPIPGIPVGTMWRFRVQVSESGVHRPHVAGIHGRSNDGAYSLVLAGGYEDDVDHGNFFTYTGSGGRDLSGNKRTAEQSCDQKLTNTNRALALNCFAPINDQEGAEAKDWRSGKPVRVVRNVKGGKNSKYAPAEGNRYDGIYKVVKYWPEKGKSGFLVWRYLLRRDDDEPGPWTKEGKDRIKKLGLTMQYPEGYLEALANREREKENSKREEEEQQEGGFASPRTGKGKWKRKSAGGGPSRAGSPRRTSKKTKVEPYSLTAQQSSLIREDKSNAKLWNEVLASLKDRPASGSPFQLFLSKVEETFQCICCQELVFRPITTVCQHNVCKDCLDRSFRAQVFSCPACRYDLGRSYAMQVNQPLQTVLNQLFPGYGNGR

[2] = molecular target: T2, GST-UHRF1 (UniProt Q96T88); test: pull-down; GST-UHRF1 proteins (wild type, truncations or mutants) immobilised on glutathione beads, incubated with DU145 cell lysates; western blot for PLK1 or USP7; only the target purified
T2 sequence: T1 sequence

[3] = molecular target: T1, UHRF1-His; test: co-IP; DU145 transfected with UHRF1-His wild type or S265 mutants for 72 h; IP anti-His, blot for USP7
[4] = molecular target: T3, UHRF1(S265D)-His (UniProt Q96T88); test: as above
T3 sequence: T1 sequence with S265D

[5] = molecular target: T1, UHRF1-His; test: co-IP; DU145 co-transfected with the indicated plasmids and PLK1 siRNAs for 72 h (PLK1 knocked down); IP anti-His, blot for USP7
[6] = molecular target: T4, UHRF1 (endogenous) (human (endogenous in DU145 and BT549)) (UniProt Q96T88); test: co-IP; endogenous proteins, DU145 and BT549 lysates; IP with anti-PLK1 or anti-UHRF1; also DU145 synchronised at G1/S by double thymidine, released, or arrested in M phase with nocodazole (IP anti-UHRF1)
T4 sequence: T1 sequence

[7] = molecular target: T5, GST-UHRF1 SRA domain-containing fragment 414-723aa (UniProt Q96T88); test: pull-down; GST-UHRF1 proteins (wild type, truncations or mutants) immobilised on glutathione beads, incubated with DU145 cell lysates; western blot for PLK1 or USP7; only the target purified
T5 sequence: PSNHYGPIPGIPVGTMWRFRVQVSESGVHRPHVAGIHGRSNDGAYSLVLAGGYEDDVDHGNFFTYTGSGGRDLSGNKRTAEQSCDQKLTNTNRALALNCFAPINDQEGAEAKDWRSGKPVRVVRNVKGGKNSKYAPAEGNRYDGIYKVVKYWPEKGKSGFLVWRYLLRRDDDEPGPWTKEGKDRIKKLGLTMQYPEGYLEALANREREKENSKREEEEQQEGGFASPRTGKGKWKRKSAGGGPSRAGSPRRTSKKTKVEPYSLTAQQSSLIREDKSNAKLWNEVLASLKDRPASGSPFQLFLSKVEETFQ

binding [1]: binds
Substance: PLK1-Flag (from UniProt P53350 1-603) (enzyme)

binding [2]: binds
binding [3]: binds
binding [4]: binds
Substance: USP7 (endogenous) (from UniProt Q93009 1-1102) (enzyme)
binding [5]: no binding (condition: PLK1 knocked down with siRNA)

binding [6]: binds
binding [7]: binds
Substance: PLK1 (endogenous) (from UniProt P53350 1-603) (enzyme)
